Test results taken from the supplement of paper PMC8285479.
Counter-ions that a name gives are not always drawn. ± gives the standard deviation of the averaged measurements. The full ranking holds about 1,900 compounds; the median of “normalised cell viability (NPI; 0 = phenylarsine oxide control, 1 = DMSO control)” is about 1, and the lowest 2% start at about 0.039. The list shows a part of the results.

Test system: NCI-H1944
Assay: normalised cell viability (NPI; 0 = phenylarsine oxide control, 1 = DMSO control) (fraction of DMSO control); NCI-H1944 is a non-small cell lung cancer line; higher = more viable cells (less compound toxicity)
Settings: 6 days
[1] = glucocorticoid arm: hydrocortisone 2.75 uM co-treatment, compound 1 µM
[2] = glucocorticoid arm: hydrocortisone 2.75 uM co-treatment, compound 5 µM
[3] = glucocorticoid arm: hydrocortisone 2.75 uM pre-treated 2 days and continued, compound 1 µM
[4] = glucocorticoid arm: hydrocortisone 2.75 uM pre-treated 2 days and continued, compound 5 µM
[5] = glucocorticoid arm: vehicle, compound 1 µM
[6] = glucocorticoid arm: vehicle, compound 5 µM
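Also: CTB read-out in 384-well plates, mean of triplicate wells, normalised per plate against 1 µM phenylarsine oxide and 0.1% DMSO, compounds added 24 h after seeding.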

Structure (SMILES) | normalised cell viability [1] | normalised cell viability [2] | normalised cell viability [3] | normalised cell viability [4] | normalised cell viability [5] | normalised cell viability [6]
COC(=O)N[C@H](C(=O)N[C@@H](Cc1ccccc1)[C@@H](O)CN(Cc1ccc(-c2ccccn2)cc1)NC(=O)[C@@H](NC(=O)OC)C(C)(C)C)C(C)(C)C [Atazanavir sulfate] | 0.997 ± 0.014 | 1.03 | 1.013 ± 0.0058 | 1.02 | 1 | 1.017 ± 0.0058
CCCCNc1cc(C(=O)O)cc(S(N)(=O)=O)c1Oc1ccccc1 [Bumetanide] | 1.01 ± 0.011 | 1.02 ± 0.01 | 1.01 ± 0.011 | 0.992 ± 0.026 | 0.9813 ± 0.0011 | 0.9923 ± 0.004
OC(CCN1CCCCC1)(c1ccccc1)C1CCCCC1 (racemic) [DL-Trihexyphenidyl hydrochloride] | 0.99967 ± 0.00058 | 0.998 ± 0.013 | 1.03 ± 0.021 | 1.02 ± 0.011 | 0.995 ± 0.007 | 1.001 ± 0.0085
CCCCCC(O)c1cccc(OCc2ccc3ccccc3n2)c1 (configuration not stated) | 0.999 ± 0.001 | 1.02 ± 0.021 | 1.02 ± 0.023 | 1.002 ± 0.0067 | 0.981 ± 0.0069 | 0.9947 ± 0.004
COc1cc2ncnc(Nc3cccc(Cl)c3)c2cc1OC [Tyrphostin AG 1478] | 0.965 ± 0.007 | 0.836 ± 0.026 | 1.01 ± 0.01 | 0.968 ± 0.025 | 1.01 | 0.903 ± 0.022
COc1cc2ncnc(Nc3cccc(Cl)c3)c2cc1OC [AG-1478 (Tyrphostin AG-1478)] | 0.944 ± 0.016 | 0.866 ± 0.046 | 0.9563 ± 0.004 | 0.919 ± 0.015 | 0.906 ± 0.019 | 0.855 ± 0.036
CCOC(=O)c1cnc2c(cnn2CC)c1NN=C(C)C [Etazolate hydrochloride] | 1.003 ± 0.0061 | 0.996 ± 0.012 | 1.001 ± 0.0083 | 1.003 ± 0.0064 | 1.01 | 1.003 ± 0.0058
C[C@]12CCC3=C4CCC(=O)C=C4CC[C@H]3[C@@H]1CC[C@@]2(O)CC#N [Dienogest] | 1.01 ± 0.016 | 1.06 ± 0.015 | 1.027 ± 0.0058 | 1.06 ± 0.015 | 1.02 ± 0.015 | 1.01 ± 0.01
O=C(O)c1cc2cc(Cc3cccnc3)ccc2o1 [Furegrelate sodium salt] | 1.003 ± 0.0058 | 0.9777 ± 0.0096 | 0.996 ± 0.012 | 0.976 ± 0.03 | 0.999 ± 0.011 | 0.989 ± 0.0072
NC(=O)c1ccc(I)c([N+](=O)[O-])c1 [Iniparib (BSI-201)] | 0.9923 ± 0.0093 | 1.04 ± 0.015 | 0.99 ± 0.013 | 1.01 ± 0.016 | 0.999 ± 0.011 | 0.9953 ± 0.0046
COc1ccc(C2=N[C@@H](c3ccc(Cl)cc3)[C@@H](c3ccc(Cl)cc3)N2C(=O)N2CCNC(=O)C2)c(OC(C)C)c1 [Nutlin-3] | 0.992 ± 0.011 | 0.929 ± 0.02 | 0.996 ± 0.016 | 1.01 ± 0.016 | 0.9923 ± 0.0075 | 0.747 ± 0.037
c1ccc(C2CN3CCSC3=N2)cc1 (single isomer, unassigned; (-)) [Tetramisole hydrochloride] | 1.01 ± 0.015 | 1 ± 0.028 | 1 ± 0.033 | 1.017 ± 0.0058 | 1.013 ± 0.0058 | 1.017 ± 0.0058
c1ccc(C2CN3CCSC3=N2)cc1 (single isomer, unassigned; (-)) [(-)-Tetramisole hydrochloride] | 1.017 ± 0.0058 | 1.01 ± 0.015 | 1.02 ± 0.015 | 1.02 ± 0.015 | 1.02 | 1.02 ± 0.015
N#C/C(=C\c1ccc(O)c(O)c1)C(=O)NCCCc1ccccc1 [Tyrphostin AG 555] | 1 ± 0.014 | 0.996 ± 0.013 | 0.934 ± 0.14 | 0.985 ± 0.016 | 1.01 ± 0.01 | 1.017 ± 0.0058
CCCNC(=O)Nc1ccc(Oc2ncnc3cc(OC)c(OC)cc23)cc1Cl | 0.991 ± 0.012 | 1.02 ± 0.021 | 1.01 ± 0.013 | 1.02 ± 0.032 | 1.002 ± 0.0072 | 1.007 ± 0.0058
O=C(O)c1cc(=O)c2c(Cl)cc(Cl)cc2[nH]1 [5,7-Dichlorokynurenic acid] | 1.001 ± 0.009 | 0.975 ± 0.019 | 0.999 ± 0.011 | 0.9823 ± 0.0015 | 1.001 ± 0.0081 | 1.003 ± 0.0058

Structure (SMILES) | normalised cell viability [1] | normalised cell viability [2] | normalised cell viability [3] | normalised cell viability [4] | normalised cell viability [5] | normalised cell viability [6]
NC(=O)c1ccc(-c2nc(-c3ccccn3)c(-c3ccc4c(c3)OCO4)[nH]2)cc1 | 1.006 ± 0.0075 | 1.02 ± 0.01 | 1.007 ± 0.0058 | 1.013 ± 0.0058 | 1.003 ± 0.0061 | 0.997 ± 0.013
Cc1cn(-c2cc(NC(=O)c3ccc(C)c(Nc4nccc(-c5cccnc5)n4)c3)cc(C(F)(F)F)c2)cn1 [Nilotinib] | 1.05 ± 0.035 | 1.093 ± 0.0058 | 1.04 ± 0.01 | 1.04 ± 0.01 | 1.013 ± 0.0058 | 1.03 ± 0.01
Cc1cn(-c2cc(NC(=O)c3ccc(C)c(Nc4nccc(-c5cccnc5)n4)c3)cc(C(F)(F)F)c2)cn1 [Nilotinib (AMN-107)] | 1.02 ± 0.01 | 1.05 ± 0.01 | 1.03 ± 0.01 | 1.05 ± 0.023 | 1.017 ± 0.0058 | 1.017 ± 0.0058
CC(C)(C)c1ccc(S(=O)(=O)/C=C/C#N)cc1 | 0.9913 ± 0.008 | 0.41 ± 0.055 | 0.9847 ± 0.007 | 0.9755 ± 0.0021 | 0.972 ± 0.0092 | 0.00936 ± 0.004
O=[N+]([O-])c1ccc(CSc2ncnc3c2ncn3[C@@H]2O[C@H](CO)[C@@H](O)[C@H]2O)cc1 [S-(4-Nitrobenzyl)-6-thioinosine] | 0.9813 ± 0.0047 | 0.968 ± 0.027 | 0.987 ± 0.018 | 0.996 ± 0.059 | 0.9973 ± 0.0046 | 0.9917 ± 0.0097
O=Nc1ccc2oc(=O)ccc2c1 [6-Nitroso-1,2-benzopyrone] | 1.02 ± 0.01 | 1.02 ± 0.015 | 1.027 ± 0.0058 | 0.857 ± 0.29 | 1.013 ± 0.0058 | 1.02 ± 0.01
CC(=O)c1c(C)c2cnc(Nc3ccc(N4CCNCC4)cn3)nc2n(C2CCCC2)c1=O | 0.8953 ± 0.0011 | 0.765 ± 0.022 | 0.9397 ± 0.0075 | 0.895 ± 0.014 | 0.9427 ± 0.004 | 0.798 ± 0.029
CC(C)OC(=O)C(C)(C)Oc1ccc(C(=O)c2ccc(Cl)cc2)cc1 [Fenofibrate] | 1 ± 0.015 | 1.005 ± 0.0092 | 1.01 ± 0.013 | 1.005 ± 0.0092 | 0.995 ± 0.0046 | 1.001 ± 0.0085
Cc1cc2c(s1)Nc1ccccc1N=C2N1CCN(C)CC1 [Olanzapine] | 1.02 | 1.02 ± 0.022 | 1.03 ± 0.011 | 1.03 ± 0.025 | 1.003 ± 0.0061 | 0.998 ± 0.013
CN1C(=O)C(Cc2c[nH]c3ccccc23)NC1=S (configuration not stated) [Necrostatin-1] | 1.03 ± 0.01 | 1.11 ± 0.025 | 1.03 ± 0.011 | 1.08 ± 0.011 | 1.01 ± 0.011 | 1.02 ± 0.017
CCn1c(-c2nonc2N)nc2c(C#CC(C)(C)O)ncc(OC[C@H]3CCCNC3)c21 | 0.899 ± 0.012 | 0.726 ± 0.061 | 0.836 ± 0.014 | 0.757 ± 0.025 | 0.9827 ± 0.007 | 0.949 ± 0.015
NC(=O)CC[C@H](N)C(=O)O [L-Glutamine] | 1.007 ± 0.0058 | 1.01 ± 0.015 | 1.013 ± 0.0058 | 1.01 ± 0.01 | 1.013 ± 0.0058 | 1.01
CCCn1c(=O)c2[nH]c(C3CCCC3)nc2n(CCC)c1=O [8-Cyclopentyl-1,3-dipropylxanthine] | 1.01 ± 0.01 | 1.03 ± 0.015 | 1.01 ± 0.011 | 1.03 ± 0.011 | 0.9947 ± 0.0029 | 0.999 ± 0.0017
O=C(CCNNC(=O)c1ccncc1)NCc1ccccc1 [Nialamide] | 1.007 ± 0.0058 | 1.01 ± 0.027 | 1.01 ± 0.018 | 1.06 ± 0.061 | 1.005 ± 0.0081 | 1.01 ± 0.015
N/C(=N\C(=O)c1nc(Cl)c(N)nc1N)NCc1ccccc1 [Benzamil hydrochloride] | 1.023 ± 0.0058 | 1.04 ± 0.01 | 1.03 ± 0.011 | 1.05 ± 0.028 | 0.9897 ± 0.0045 | 1.02 ± 0.016
CCC(=O)c1ccc2c(c1)N(CCCN(C)C)c1ccccc1S2 [Propionylpromazine hydrochloride] | 0.975 ± 0.014 | 0.951 ± 0.011 | 1.01 ± 0.027 | 1 ± 0.016 | 0.9983 ± 0.0021 | 0.987 ± 0.013
